Experimental data published in paper PMC4336329 (PLoS ONE, 2015).
The whole screen tested about 310,000 compounds, of which about 14,000 (4.5%) showed an effect of 50% or more. Effects have a minus sign here. The list shows a part of the results. Where a SMILES comes first, the peptide text is derived from it. [ ]: non-standard residue; d: D form. The star is where a group is joined. ξ: configuration not given here. Tos = Cc1ccc(S(=O)(=O)*)cc1; ξP = O=C(O)C1CCCN1

Biological target: human ether-à-go-go-related gene (hERG) potassium channel (human, UniProt Q12809)
Sequence (Q12809 whole entry, looked up): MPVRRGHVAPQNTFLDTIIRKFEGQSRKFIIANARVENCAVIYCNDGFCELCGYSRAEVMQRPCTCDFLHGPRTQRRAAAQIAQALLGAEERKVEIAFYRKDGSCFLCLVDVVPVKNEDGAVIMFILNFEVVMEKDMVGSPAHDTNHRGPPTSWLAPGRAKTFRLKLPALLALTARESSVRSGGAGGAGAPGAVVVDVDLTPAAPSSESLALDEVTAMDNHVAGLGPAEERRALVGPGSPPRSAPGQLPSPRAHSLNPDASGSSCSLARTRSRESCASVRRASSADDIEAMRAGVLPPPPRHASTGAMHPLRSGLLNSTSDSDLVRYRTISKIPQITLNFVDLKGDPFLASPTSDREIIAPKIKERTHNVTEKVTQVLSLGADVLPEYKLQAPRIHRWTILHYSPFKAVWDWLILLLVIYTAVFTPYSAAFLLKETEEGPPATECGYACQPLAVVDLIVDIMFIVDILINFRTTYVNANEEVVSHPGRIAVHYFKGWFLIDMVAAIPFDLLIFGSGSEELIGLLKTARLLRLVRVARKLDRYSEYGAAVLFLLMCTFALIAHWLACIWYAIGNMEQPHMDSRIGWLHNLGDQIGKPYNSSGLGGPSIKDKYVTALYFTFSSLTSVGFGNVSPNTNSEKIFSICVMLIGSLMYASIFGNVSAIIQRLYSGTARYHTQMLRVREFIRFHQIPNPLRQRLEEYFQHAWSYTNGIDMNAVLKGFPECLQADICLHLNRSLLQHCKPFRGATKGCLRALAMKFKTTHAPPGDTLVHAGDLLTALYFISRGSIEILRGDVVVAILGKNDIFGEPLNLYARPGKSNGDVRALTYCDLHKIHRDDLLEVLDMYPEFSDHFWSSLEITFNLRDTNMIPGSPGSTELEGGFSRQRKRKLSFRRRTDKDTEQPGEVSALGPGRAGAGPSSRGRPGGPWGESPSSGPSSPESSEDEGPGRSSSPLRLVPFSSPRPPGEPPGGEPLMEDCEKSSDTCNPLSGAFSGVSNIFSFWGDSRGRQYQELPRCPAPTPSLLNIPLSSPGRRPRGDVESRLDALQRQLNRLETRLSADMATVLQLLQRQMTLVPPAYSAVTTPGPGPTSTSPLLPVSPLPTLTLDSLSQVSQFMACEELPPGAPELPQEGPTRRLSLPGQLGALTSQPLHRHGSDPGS
Assay: primary screen, population patch clamp on CHO cells stably expressing hERG
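Also: peak tail current of the secondary pulse compared with the same well before compound.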

First: CCOC(=O)c1ccc(NC(=O)CCNc2c(N3CCCC3)c(=O)c2=O)cc1
Second: O=C(CSc1nncs1)Nc1ccc(N2CCCCC2)cc1
The “hERG current change (%, negative = inhibition) at 10uM” value of the first is higher: 15.1% for the first, 5.93% for the second.

Going from `CCc1cc(C(=O)N2CCN(S(=O)(=O)c3cc(C)ccc3C)CC2)sc1C` to `CCN(CC)C(=O)N1CCN(S(=O)(=O)c2c(C)cc(C)cc2C)CC1`, the “hERG current change (%, negative = inhibition) at 10uM” value falls from 11.8% to -5.06%.

Going from `COc1ccc(C(=O)Nc2ccc3oc(-c4cccnc4)nc3c2)cc1OC` to `COc1ccc(NC(=O)C(=O)N/N=C/c2cccnc2)cc1`, the “hERG current change (%, negative = inhibition) at 10uM” value falls from 12.7% to -7.67%.

Compared with `Clc1ccc(-n2nnc(-c3cccnc3Cl)n2)cn1`, `COc1ccc(CN2C(=O)c3cccnc3C2O)cc1` (centres unmarked) is higher in “hERG current change (%, negative = inhibition) at 10uM” value: -9.43% for the first, 15.3% for the second.

Going from `COc1cc(/C=N/NC(=O)COc2ccc([N+](=O)[O-])cc2)ccc1OCC(=O)N1CCOCC1` to `Cc1ccc(OCC(=O)N/N=C/c2cn(Cc3ccccc3)c3ccccc23)cc1`, the “hERG current change (%, negative = inhibition) at 10uM” value rises from 1.07% to 15%.

Going from `Cc1ccc(S(=O)(=O)NCC(=O)N2CCCC2C(=O)O)cc1` (stereo not drawn) (Tos-Gly-[ξP]-OH) to `O=C(CNS(=O)(=O)c1ccccc1)N1CCN(C(=O)c2ccco2)CC1`, the “hERG current change (%, negative = inhibition) at 10uM” value falls from -1.84% to -6.48%.

Going from `Cc1ccc(C)c(C2NC(=O)c3ccccc3N2)c1` (centres unmarked) to `O=C1NC(c2ccc(Cl)cc2)Oc2ccccc21` (centres unmarked), the “hERG current change (%, negative = inhibition) at 10uM” value rises from 12.7% to 18%.

First: Cc1ccc(CNc2nc(C)c(C(=O)N(C)C)s2)cc1
Second: Cc1ccc(COC(=O)NCc2cccnc2)cc1
The “hERG current change (%, negative = inhibition) at 10uM” value of the first is lower: 4.98% for the first, 22% for the second.

Compared with `CSCCC1NC2(C(=O)Nc3c(Cl)cccc32)[C@@H]2C(=O)N(C3CCCC3)C(=O)[C@H]12` (some centres unmarked), `Cc1cccc2c1NC(=O)C21OCC(CO)([N+](=O)[O-])CO1` (centres unmarked) is higher in “hERG current change (%, negative = inhibition) at 10uM” value: -5.23% for the first, 12.3% for the second.

Going from `CCOC(=O)C1=C(C)NC2=C(C(=O)CCC2)C1c1ccc(O)c(OCC)c1` (centres unmarked) to `COc1cc(C(=O)NCCC2=CCCCC2)ccc1OCc1c(C)noc1C`, the “hERG current change (%, negative = inhibition) at 10uM” value rises from 4.11% to 9.16%.

Compared with `COc1ccc(NC(=O)CN(C)C(=O)c2ccc(-c3cccc(C(F)(F)F)c3)o2)cc1`, `COc1ccc(CNC(=O)C2CC(c3cc(C(F)(F)F)cc(C(F)(F)F)c3)=NO2)cc1` (centres unmarked) is higher in “hERG current change (%, negative = inhibition) at 10uM” value: 10.1% for the first, 10.7% for the second.

Going from `CSc1nc(C)[nH]c(=O)c1C#N` to `Cc1cc(C)n(/N=C/c2cccs2)c(=O)c1C#N`, the “hERG current change (%, negative = inhibition) at 10uM” value falls from 19.1% to 15.8%.

Compared with `COc1cc(NS(=O)(=O)c2ccc(NC(=O)CN3C(=O)c4ccccc4C3=O)cc2)nc(OC)n1`, `O=C(CN1C(=O)c2ccccc2C1=O)Nc1ccccc1C(=O)NC1CCCCC1` is lower in “hERG current change (%, negative = inhibition) at 10uM” value: 24.1% for the first, 1.72% for the second.

Going from `CSc1nnc(-c2ccccc2)c(-c2ccccc2)n1` to `CC(=O)c1c(-c2ccccc2)[nH]c2ccccc12`, the “hERG current change (%, negative = inhibition) at 10uM” value rises from -13.7% to 15%.

First: CN1CCN(Cc2cc(C(C)(C)C)c(O)c(C(C)(C)C)c2)CC1
Second: COc1ccc(C(C)(C)C)cc1NC(=S)NCCN1CCOCC1
The “hERG current change (%, negative = inhibition) at 10uM” value of the first is lower: -15.1% for the first, 1.38% for the second.

Going from `C=CCN(C(=O)c1cc(C)cc(C)c1)C1(C(=O)Nc2ccccc2)CCN(C(C)C)CC1` to `Cc1cc(C)cc(NC(=O)Cn2c(=O)oc3cc(S(=O)(=O)N4CCC(C)CC4)ccc32)c1`, the “hERG current change (%, negative = inhibition) at 10uM” value rises from -14.4% to -0.611%.

Compared with `COc1cc(S(=O)(=O)N2CCCCC2)ccc1NC(=O)/C=C/c1ccccc1`, `O=C(Nc1cc(S(=O)(=O)N2CCOCC2)ccc1N1CCCCC1)c1ccc(Cl)cc1` is higher in “hERG current change (%, negative = inhibition) at 10uM” value: -16.8% for the first, -1.07% for the second.

First: CC(=O)c1ccc(S(=O)(=O)N2CCN(c3ccccc3F)CC2)cc1
Second: O=S(=O)(c1ccc(Cl)cc1)N1CCCN(c2nc3ccc(Cl)cc3s2)CC1
The “hERG current change (%, negative = inhibition) at 10uM” value of the first is lower: 6.87% for the first, 11.8% for the second.

Going from `CCOC(=O)C(C(=O)NCc1cccc(OC)c1)c1ncc(C(F)(F)F)cc1Cl` (centres unmarked) to `Cc1ccc(C)c(C(=O)CCC(=O)N2CCN(c3cccc(C(F)(F)F)c3)CC2)c1`, the “hERG current change (%, negative = inhibition) at 10uM” value falls from 16.9% to 1.54%.

First: C=CC1=C(C(=O)O)N2C(=O)[C@@H](NC(=O)/C(=N\O)c3csc(N)n3)[C@H]2SC1
Second: Cc1ccc(/C=C/C(=O)OCC(=O)NCCN2C(=O)CSC2=O)o1
The “hERG current change (%, negative = inhibition) at 10uM” value of the first is lower: 3.26% for the first, 29% for the second.

Going from `O=C1CC(=O)Nc2cc(S(=O)(=O)N3CCOc4ccc(Cl)cc43)ccc2N1` to `Cc1ccc(S(=O)(=O)Nc2cc3c4c(c2)C(C)C(=O)N4CCC3)cc1` (centres unmarked), the “hERG current change (%, negative = inhibition) at 10uM” value falls from 0.263% to -1.44%.

First: COc1ccccc1/C=C/C(=O)c1ccccc1
Second: O=C(NCC#CCOCc1ccccc1)c1ccccc1
The “hERG current change (%, negative = inhibition) at 10uM” value of the first is higher: 7.68% for the first, -6.3% for the second.

Compared with `Cc1ccc(CSc2nc3ccccc3cc2C=O)cc1`, `Cc1ccc(-c2onc3ccc(Cl)cc23)cc1` is lower in “hERG current change (%, negative = inhibition) at 10uM” value: 7.93% for the first, -0.992% for the second.

Compared with `Cc1cccc(OCC(=O)Nc2ccc(C(=O)O)cc2NC(=O)COc2cccc(C)c2)c1`, `O=C(CNc1ccc2ccccc2c1)N/N=C/c1cc2ccccc2nc1Cl` is lower in “hERG current change (%, negative = inhibition) at 10uM” value: 6.64% for the first, 3.29% for the second.

First: CCOC(=O)N1CCN(S(=O)(=O)c2ccc(C(=O)N(CCN(C)C)c3nc4ccc(Cl)cc4s3)cc2)CC1.Cl
Second: C/C(=N\Nc1ccc(S(=O)(=O)Nc2ccc(Cl)cc2)cc1[N+](=O)[O-])c1ccc(N2CCOCC2)cc1
The “hERG current change (%, negative = inhibition) at 10uM” value of the first is lower: -28.5% for the first, 3.59% for the second.

First: COc1ccc(OC)c(-c2nnc(SCC(=O)N3CCCc4ccccc43)o2)c1
Second: COc1ccccc1CN1CC(C(=O)NCCSc2nnnn2C)CCC1=O (centres unmarked)
The “hERG current change (%, negative = inhibition) at 10uM” value of the first is lower: -34.7% for the first, 20% for the second.

First: COc1cccc(NC(=O)Nc2nc(SC(C)(C)C)ns2)c1
Second: Cc1c(C(=O)NCc2ccco2)cccc1[N+](=O)[O-]
The “hERG current change (%, negative = inhibition) at 10uM” value of the first is higher: 11.5% for the first, -6.07% for the second.

Going from `CCOC(=O)C1(CC2CCCCO2)CCN(Cc2nccn2-c2ccc(OC)cc2)CC1` (centres unmarked) to `Cc1ccccc1C(=O)N(Cc1nc2ccccc2c(=O)[nH]1)C1CCCC1`, the “hERG current change (%, negative = inhibition) at 10uM” value rises from -5.78% to -1.81%.

Going from `O=C(CCCn1ncn2c(cc3occc32)c1=O)N1CCc2ccccc2C1` to `CCc1nn(CCCC(=O)NCc2cc(Br)ccc2OC)c(=O)c2cc3occc3n12`, the “hERG current change (%, negative = inhibition) at 10uM” value rises from -63% to -2.73%.

First: C[C@@]12C(=O)Nc3ccc(Br)cc3C(=O)N1[C@H]1c3cc(Br)ccc3OC[C@@H]1[C@@H]2c1ccccc1
Second: Cc1cc(NC(=O)c2ccccc2)nc2c1c(=O)oc1ccccc12
The “hERG current change (%, negative = inhibition) at 10uM” value of the first is higher: 36.4% for the first, 30.6% for the second.

Compared with `O=C(Nc1cccn(Cc2c(Cl)cccc2Cl)c1=O)c1ccccc1Cl`, `CS(=O)(=O)N(CC(=O)Nc1ccccc1)Cc1ccc(Cl)cc1` is lower in “hERG current change (%, negative = inhibition) at 10uM” value: 0.676% for the first, -23.9% for the second.

First: O=c1[nH]c2ccc(NC(=S)Nc3ccc(F)cc3)cc2[nH]1
Second: Fc1ccc(-c2nc3ccccc3[nH]2)cc1
The “hERG current change (%, negative = inhibition) at 10uM” value of the first is lower: 17.9% for the first, 20.6% for the second.

Going from `O=C(CCNS(=O)(=O)c1ccccc1)N1CCN(C(c2ccccc2)c2ccccc2)CC1` to `O=C(NCCCN1CCCC1)c1ccc2c(c1)N(Cc1ccc(F)cc1)C(=O)c1ccccc1S2=O` (centres unmarked), the “hERG current change (%, negative = inhibition) at 10uM” value falls from -20.6% to -26.1%.

First: O=c1c2c(nc3n1CCCCC3)-c1ccccc1CC21CCCCC1
Second: C=CCn1nc2n(c1=O)-c1ccccc1SC2
The “hERG current change (%, negative = inhibition) at 10uM” value of the first is higher: 13.9% for the first, -2.47% for the second.

Going from `Cc1cc(C)n(-c2nnc(C)n2/N=C/c2ccc(O)cc2)n1` to `COc1ccccc1Cn1c(C)nnc1-c1cnn(C)c1N`, the “hERG current change (%, negative = inhibition) at 10uM” value falls from 16.6% to -0.622%.

Going from `CCCn1nnnc1NC(=O)c1cc(Cl)ccc1Cl` to `CCc1nc(SCC(=O)NCc2ccccc2)c2c(=O)n(C)c(=O)n(C)c2n1`, the “hERG current change (%, negative = inhibition) at 10uM” value rises from 1.82% to 3.98%.

First: N/C(=N\OC(=O)CC1CCCCC1)c1ccccc1
Second: Cc1ccc(SCC(=O)O/N=C(\N)c2ccc([N+](=O)[O-])cc2)cc1
The “hERG current change (%, negative = inhibition) at 10uM” value of the first is higher: -7.04% for the first, -36.3% for the second.

Going from `COc1ccccc1N1CCN(C(=O)CCCn2c(=O)[nH]c3ccsc3c2=O)CC1` to `O=C(Nc1ccc(N2CCN(C(=O)c3ccco3)CC2)cc1)c1ccc(F)cc1`, the “hERG current change (%, negative = inhibition) at 10uM” value falls from 4.33% to -46.8%.

First: CC1(CC(=O)Nc2ccccc2)NC(=S)N(c2ccccc2)N1 (centres unmarked)
Second: CSc1ccc(/C=N/NC(=O)CN2CCN(Cc3ccccc3Cl)CC2)cc1
The “hERG current change (%, negative = inhibition) at 10uM” value of the first is higher: 42.4% for the first, -37.5% for the second.

Compared with `Cc1cccn2c(=O)c3cc(S(=O)(=O)c4ccccc4)c(=N)n(CC4CCCO4)c3nc12` (centres unmarked), `Cc1ccc(S(=O)(=O)N(CC(=O)N/N=C/c2cccc3c2OCCO3)c2ccccc2F)cc1` is higher in “hERG current change (%, negative = inhibition) at 10uM” value: -15.3% for the first, -6.02% for the second.

Compared with `Brc1ccc(/C=N/Nc2nncc(-c3ccccc3)n2)o1`, `COc1ccc(OCCCON2C(=O)c3ccccc3C2=O)cc1` is lower in “hERG current change (%, negative = inhibition) at 10uM” value: 10.6% for the first, -38.8% for the second.

First: C/C(=N\NC(=O)CNC(=O)c1ccc(F)cc1)c1ccco1
Second: COc1ccc2[nH]cc(CCNC(=O)Cc3ccc(Br)cc3)c2c1
The “hERG current change (%, negative = inhibition) at 10uM” value of the first is higher: 3.59% for the first, -10% for the second.

Going from `CCCOc1ncnc2c1sc1nc3c(cc12)COC(C)(C)C3` to `CC(C)c1cccc(C(C)C)c1OCCCCN1CCCC1`, the “hERG current change (%, negative = inhibition) at 10uM” value falls from 13.7% to -22.7%.
